Experimental data from PubChem BioAssay (NCI).
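Method: 48-hour compound exposure of cells in 96-well plates, five concentrations, linear interpolation of endpoints. At the GI50, growth is halved.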 Not every entry of the source has a single result; some have several. The other results are left out here. An entry can have further records. For some assays here: The tests behind the records often covered other concentration ranges, not given here; some values may only mark the edge of a range. For some assays here: Values given together are repeats (runs, samples, wells, individuals or studies). Records carry a tag for their origin. Letters hold for one entry only.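 The concentration for full growth arrest is given as TGI.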

Key:
Assay in all cases: NCI tumour cell line growth inhibition, 48 h
HL-60(TB) leukemia = test system: HL-60(TB) leukemia
HT29 colon = test system: HT29 colon
LOX IMVI melanoma = test system: LOX IMVI melanoma
MALME-3M melanoma = test system: MALME-3M melanoma
OVCAR-5 ovarian = test system: OVCAR-5 ovarian
P388 leukemia = test system: P388 leukemia
P388/ADR leukemia = test system: P388/ADR leukemia
SN12C renal = test system: SN12C renal
UACC-257 melanoma = test system: UACC-257 melanoma
SK-MEL-5 melanoma = test system: SK-MEL-5 melanoma

SMILES | TGI (HL-60(TB) leukemia) | TGI (HT29 colon) | TGI (LOX IMVI melanoma) | GI50 (MALME-3M melanoma) | TGI (MALME-3M melanoma) | TGI (OVCAR-5 ovarian) | TGI (P388 leukemia) | TGI (P388/ADR leukemia) | TGI (SN12C renal) | TGI (UACC-257 melanoma) | GI50 (SK-MEL-5 melanoma)
CC12CCC3C(CCC4=CC(O)CCC43C=O)C1(O)CCC2c1ccc(=O)oc1 (stereo unspecified) | 10.8 nM and 500 µM | 43.5 nM and 1.16 µM | 30.9 nM and 580 nM | 4.06 nM [mean of 3 tests] and 158 nM [mean of 4 tests] | 8.23 nM [mean of 3 tests] and 189 nM [mean of 4 tests] | 11.7 nM and 168 nM | 111 nM and 198 µM | 321 nM and 313 µM | 141 nM and 500 µM | 62.4 nM and 1.39 µM | –
O=C(c1ccc(F)c(F)c1Nc1ccc(I)cc1F)N1CC(O)([C@@H]2CCCCN2)C1 | – | – | – | – | – | – | – | – | – | – | < 28.8 nM [sample A, mean of 2 tests] and 796 nM [sample B, mean of 2 tests]
